In all, about 360,000 compounds went through this assay and about 7,500 (2.1%) were called active. Inconclusive means that the source gave no clear call. Such entries were picked first, then a sample of the others. Calls come from the whole dose curve; as a rule, active = well fitted cell-killing curve with a large enough effect; inconclusive = small, poorly fitted or top-dose-only effect, or effect the other way, or another doubt; inactive = no such curve, though single readings can be large or run the other way. No potency is given beside an inconclusive call; the fits are too rough.
Assay: qHTS for induction of synthetic lethality in tumor cells producing 2HG: qHTS for the HT-1080-IDH1KD cell line
Conditions: HT-1080 IDH1 knockdown viability, ATP luminescence, 48 h; series mostly up to 46.1 µM
Outline: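 Knockdown cells (IDH1KD HT-1080) received compounds 2 h after plating at 750 cells/well and were kept 48 h at 37 °C in 5% FBS RPMI. A CellTiter-Glo luminescence read gave % activity for curve fitting.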
For `O=C(Nc1ccccc1)c1ccc(OC(=O)c2ccccc2)cc1`, the Potency was “inactive”.
With `COC(=O)c1ccc2c(=O)n(CCCN3CCOCC3)c(=S)[nH]c2c1` the Potency was inconclusive [rising, single point].
In the case of `COCCN(C(=O)COC(=O)/C=C/c1ccc2ccccc2n1)c1c(N)n(Cc2ccccc2)c(=O)[nH]c1=O`, the Potency is reported as inconclusive [cytotoxic, partial curve].
With `COC(=O)c1c(C)oc2c1cc(NS(=O)(=O)c1cccs1)c1ccccc12` the Potency was inconclusive [cytotoxic, single point].
For `CCOc1ccc2oc(C(=O)Nc3ccc(N4CCOCC4)cc3)c(C)c2c1`, the Potency was inconclusive [cytotoxic, single point].
For `CCCS(=O)(=O)N1CCC(C(=O)Oc2ccc(OC)cc2)CC1`, the Potency was inconclusive [cytotoxic, single point].
In the case of `CC(=O)c1ccc(OCCCC(=O)Nc2cc(Cl)ccc2-n2cncn2)cc1`, the Potency is reported as “inactive”.
In the case of `COC(=O)c1c(NC(=O)COc2ncnc3ccccc23)sc(C)c1C`, the Potency is reported as “inactive”.
In the case of `COc1ccc(CCNC(=O)c2c([S-])n(-c3ccc(C)cc3)c3cccc[n+]23)cc1`, the Potency is reported as inconclusive [cytotoxic, partial curve].
In the case of `COc1cc(C2c3cc4c(cc3OC(C)(N3CCCC3)C2C)OCO4)cc(OC)c1OC` (stereo not given), the Potency is reported as inconclusive [cytotoxic, partial curve].
For `CC1CCC(NC(=O)CCS(=O)(=O)c2ccc3c(c2)CCN3C(=O)C2CC2)CC1` (stereo not given), the Potency was “inactive”.
With `COc1cccc(/C=N/NC(=O)c2c(C)nc3ccc(Cl)cn23)c1O` the Potency was inconclusive [cytotoxic, full curve].
For `O=C(CSc1nncs1)NNC(=O)c1ccco1`, the Potency was “inactive”.
For `COc1cc(-c2noc(C)c2C#Cc2ccsc2)cc(OC)c1OC`, the Potency was active: 0.517 µM.
For `CCc1nc2ccc(C(=O)Nc3cc(-c4ccccc4)ccc3OC)cn2c1N(CCN(C)C)CC1CC1`, the Potency was active: 18.4 µM.
In the case of `COc1ccccc1Cc1c(-c2ccco2)nc2ccc(C)cn12`, the Potency is reported as inconclusive [cytotoxic, partial curve].
With `CCC1(c2ccccc2)NC(=O)N(CC(=O)NNC(=O)COc2ccc(Cl)cc2C)C1=O` (stereo not given) the Potency was “inactive”.
With `Oc1cc2c(cc1C(c1ccc(Br)cc1)N1CCCC1)OCO2` (stereo not given) the Potency was inconclusive [cytotoxic, single point].
In the case of `Cc1nn(-c2ccccc2)c(Cl)c1/C=N\NC(=O)c1cnccn1`, the Potency is reported as “inactive”.
For `Cc1cc(C(=O)Nc2ccc(Cl)cc2)on1`, the Potency was inconclusive [cytotoxic, single point].
For `COc1cc2c(cc1OC)C(C)N(C(=O)c1c(-c3ccccc3)noc1C)CC2` (stereo not given), the Potency was active: 23.1 µM.
For `COc1ccc(Cn2c(C3CC3)nc3ccc(NC(=O)c4cccnc4)cc3c2=O)cc1`, the Potency was active: 10.3 µM.
For `Cc1onc(-c2c(Cl)cccc2Cl)c1C(=O)N1CCN(c2ccccc2F)CC1`, the Potency was “inactive”.
With `COc1ccc(S(=O)(=O)N2CCOCC2)cc1C(=O)Nc1ccc(N2CCCCCC2)cc1` the Potency was inconclusive [cytotoxic, single point].
In the case of `Nc1cc2c3ccccc3ccc2c2ccccc12`, the Potency is reported as inconclusive [cytotoxic, single point].
In the case of `COc1ccc(S(=O)(=O)Nc2ccc3c(c2)C(=O)N([C@H](C)CO)C[C@H](C)[C@@H](CN(C)C(=O)Nc2c(C)noc2C)O3)cc1`, the Potency is reported as “inactive”.
For `C[C@@H]1CN([C@@H](C)CO)S(=O)(=O)c2ccc(Br)cc2O[C@H]1CN(C)C(=O)Nc1ccc(C(F)(F)F)cc1`, the Potency was inconclusive [cytotoxic, single point].
With `Cc1ccc(C)c(Cn2cnc3c(cnn3C(C)(C)C)c2=O)c1` the Potency was inconclusive [cytotoxic, single point].
For `CCOC(=O)c1cnc2ccc(OCC)cc2c1NCc1ccccc1`, the Potency was inconclusive [cytotoxic, single point].
In the case of `CCc1c(C2(O)CCCCC2)[nH]c2c(C(=O)OC)cc(Cl)cc12`, the Potency is reported as inconclusive [cytotoxic, single point].
With `COc1ccc(CN2CCN(C(c3ccc(F)cc3)c3ccc(F)cc3)CC2)c(OC)c1OC` the Potency was inconclusive [cytotoxic, single point].
In the case of `CCN(CC)CCCNc1nc2ccccc2c2nc(-c3ccncc3)nn12`, the Potency is reported as active: 16.4 µM.
With `COc1ccc(S(=O)(=O)Nc2ccc(Cc3ccncc3)cc2)cc1OC` the Potency was “inactive”.
With `C[C@H](CO)N1C[C@H](C)[C@@H](CN(C)C(=O)c2cccc(F)c2)Oc2cc(-c3cncnc3)ccc2S1(=O)=O` the Potency was “inactive”.
With `O=[N+]([O-])c1ccc(NN=CCCc2ccccc2)nc1` the Potency was inconclusive [cytotoxic, partial curve].
With `Cc1cccc(-c2ccc3[nH]c4c(c3c2)CCN2C[C@@H]([C@H](C)O)[C@@H](N(C)C(=O)NC3CCCCC3)C[C@@H]42)c1` the Potency was inconclusive [cytotoxic, partial curve].
With `Brc1ccccc1CN1CCN(Cc2c[nH]c3ccccc23)CC1` the Potency was active: 23.1 µM.
For `CC(C)c1ccc2oc(-c3cc(N)ccc3O)nc2c1`, the Potency was “inactive”.
For `Cc1ccc2nc(-c3ccccn3)c(Nc3ccccc3C)n2c1`, the Potency was active: 13 µM.
With `Cc1ccc(NC(=O)CSc2ccccc2NC(=O)c2ccccc2)cc1Cl` the Potency was inconclusive [cytotoxic, single point].
With `COc1ccc(CCNC(=O)Cn2c(=O)oc3cc(Cl)ccc32)cc1OC` the Potency was inconclusive [rising, single point].
In the case of `c1cncc(-c2nnc3sc(-c4ccco4)nn23)c1`, the Potency is reported as “inactive”.
For `CCN1CCN(Cc2ccc(NC(=O)c3ccc(C)c(NC(=O)c4c[nH]c5cc(C(F)(F)F)ccc5c4=O)c3)cc2C(F)(F)F)CC1`, the Potency was active: 3.26 µM.
For `O=C(/C=C/Nc1cccc(O)c1)c1ccccc1`, the Potency was inconclusive [cytotoxic, single point].
For `O=C(N[C@@H](Cc1ccccc1)C(=O)N1CCC2(CC1)NCCc1[nH]cnc12)c1cccc(Br)c1`, the Potency was inconclusive [cytotoxic, single point].
For `O=C(Nc1ccc(NC(=O)c2ccco2)cc1)c1ccc2c(c1)OCO2`, the Potency was inconclusive [cytotoxic, single point].
In the case of `CCn1c(=O)cc(SCC(=O)N2CCN(C(=O)c3ccco3)CC2)c2ccccc21`, the Potency is reported as inconclusive [cytotoxic, single point].
In the case of `CCOc1cc(-c2cc(-c3ccc(C)cc3)nc(N)c2C#N)ccc1O`, the Potency is reported as active: 12.6 µM.
In the case of `Cc1cc2cc(C(c3nnnn3Cc3ccco3)N3CCc4ccccc4C3)c(=O)[nH]c2cc1C` (stereo not given), the Potency is reported as inconclusive [cytotoxic, partial curve].
In the case of `CCCOc1ccc(CNC(=S)N/N=C/c2ccc([N+](=O)[O-])cc2)cc1`, the Potency is reported as inconclusive [cytotoxic, single point].
In the case of `COc1cc(CNCCc2c[nH]c3ccccc23)ccc1OCc1ccccc1F`, the Potency is reported as inconclusive [cytotoxic, single point].
In the case of `CN1CCN(CC(O)COc2ccc(C34CC5CC(CC(C5)C3)C4)cc2)CC1` (stereo not given), the Potency is reported as active: 14.6 µM.
With `Cn1cnc(S(=O)(=O)Nc2ccc(OC(F)(F)F)cc2)c1` the Potency was “inactive”.
For `Cn1nc(CC(=O)NCc2cccc3ccccc23)c2ccccc2c1=O`, the Potency was inconclusive [cytotoxic, single point].
In the case of `CCCCCC(=O)N1CCCCC1`, the Potency is reported as “inactive”.
In the case of `O=C(NC1CCCCC1)C1c2ccccc2OCC(=O)N1Cc1ccco1` (stereo not given), the Potency is reported as inconclusive [cytotoxic, single point].
In the case of `Nc1nc(N)c2c(ccc3c2ccn3Cc2cccc([N+](=O)[O-])c2)n1`, the Potency is reported as active: 0.146 µM.
In the case of `Nc1ccc2oc(-c3cc(Br)ccc3Cl)nc2c1`, the Potency is reported as inconclusive [cytotoxic, single point].
For `Cc1cc(C)c2nc(-c3ccccn3)cc(C(=O)Nc3ccc(S(=O)(=O)Nc4cc(C)on4)cc3)c2c1`, the Potency was inconclusive [cytotoxic, single point].
With `CN(C(=O)C(C)(C)C)C1c2c(ccc3ccccc23)OCC1CO` (stereo not given) the Potency was “inactive”.
With `COc1ccc(NS(=O)(=O)c2cc(NC(=O)c3ccco3)ccc2N2CCCCC2)cc1` the Potency was inconclusive [cytotoxic, single point].
In the case of `COC1=CC(=O)C=C(OC)C1=O`, the Potency is reported as inconclusive [cytotoxic, single point].
For `COc1ccc(NC(=O)Nc2cccc(C(F)(F)F)c2)cn1`, the Potency was inconclusive [cytotoxic, single point].
For `Oc1c(CN2CCOCC2)cc(COCc2ccccc2)c2cccnc12`, the Potency was active: 13 µM.
For `CC(=O)Nc1ccccc1NS(=O)(=O)c1ccc(Cl)cc1`, the Potency was inconclusive [cytotoxic, single point].
In the case of `COc1ccc(Nc2nc3ccccc3n3cnnc23)cc1`, the Potency is reported as inconclusive [cytotoxic, single point].
For `Cc1occc1C(=O)N/N=C/c1ccc(N(C)C)cc1`, the Potency was active: 23.1 µM.
In the case of `CN1C(=S)N(c2cccnc2)C(=O)/C1=C\c1ccc(N(C)C)cc1`, the Potency is reported as inconclusive [cytotoxic, single point].
With `COC(=O)[C@@]1(Cc2ccc(OC)cc2)[C@H]2c3cc(C(=O)N4CCCC4)n(Cc4ccccc4)c3C[C@H]2CN1C(=O)c1ccccc1` the Potency was inconclusive [cytotoxic, single point].
In the case of `CC(C)(C)OC(=O)NCCCC[C@H](NC(=O)c1[nH]cnc1C(=O)Nc1ccc(Cl)cc1)C(=O)OC(C)(C)C`, the Potency is reported as inconclusive [cytotoxic, single point].

— PubChem BioAssay AID686971 (National Center for Advancing Translational Sciences (NCATS), 2013)
Potency is the fitted concentration of half-maximal effect; tags give direction and shape of the fitted curve.
